Test results reported in the supplement of paper PMC8728848.
This is one part of the list.

Legend:
Experiment in all cases: glycan array binding signal (z-score within array); higher = stronger binding
Settings in all cases: glycan notation: IUPAC condensed, linker removed
Kdn(a2-3)Gal(b1-3)GlcNAc = target: Kdn(a2-3)Gal(b1-3)GlcNAc
How it was run: (§1)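 Negative Z-scores can be read as non-binding. The Z-score is calculated within each array and then averaged across arrays of one protein sequence at different concentrations or buffers and across linkers. Arrays, 3228 in all, were curated from the Consortium for Functional Glycomics database and kept only where the protein sequence was available.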

Kdn(a2-3)Gal(b1-4)Glc = target: Kdn(a2-3)Gal(b1-4)Glc
How it was run: as §1

Kdn(a2-3)Gal(b1-4)GlcNAc = target: Kdn(a2-3)Gal(b1-4)GlcNAc
How it was run: as §1

[1] = target: Kdn(a2-3)Gal(b1-4)[Fuc(a1-3)]GlcNAc
How it was run: as §1

Kdn(a2-6)Gal(b1-4)GlcNAc = target: Kdn(a2-6)Gal(b1-4)GlcNAc
How it was run: as §1

[2] = target: Man(a1-2)Man(a1-2)Man(a1-3)Man
How it was run: as §1

[3] = target: Man(a1-2)Man(a1-2)Man(a1-6)[Man(a1-3)]Man
How it was run: as §1

Man(a1-2)Man(a1-3)Man = target: Man(a1-2)Man(a1-3)Man
How it was run: as §1

[4] = target: Man(a1-2)Man(a1-3)[Man(a1-2)Man(a1-6)]Man
How it was run: as §1

[5] = target: Man(a1-2)Man(a1-3)[Man(a1-2)Man(a1-6)]Man(a1-6)[Man(a1-2)Man(a1-2)Man(a1-3)]Man
How it was run: as §1

[6] = target: Man(a1-2)Man(a1-3)[Man(a1-2)Man(a1-6)]Man(a1-6)[Man(a1-2)Man(a1-2)Man(a1-3)]Man(b1-4)GlcNAc(b1-4)GlcNAc
How it was run: as §1

[7] = target: Man(a1-2)Man(a1-3)[Man(a1-6)]Man(a1-6)[Man(a1-2)Man(a1-3)]Man(b1-4)GlcNAc(b1-4)GlcNAc
How it was run: as §1

[8] = target: Man(a1-2)Man(a1-6)[Man(a1-3)]Man(a1-6)[Man(a1-2)Man(a1-2)Man(a1-3)]Man
How it was run: as §1

[9] = target: Man(a1-2)Man(a1-6)[Man(a1-3)]Man(a1-6)[Man(a1-2)Man(a1-2)Man(a1-3)]Man(b1-4)GlcNAc(b1-4)GlcNAc
How it was run: as §1

Man(a1-3)[Man(a1-6)]Man = target: Man(a1-3)[Man(a1-6)]Man
How it was run: as §1

[10] = target: Man(a1-3)[Man(a1-6)]Man(a1-6)[Man(a1-2)Man(a1-3)]Man(b1-4)GlcNAc(b1-4)GlcNAc
How it was run: as §1

[11] = target: Man(a1-3)[Man(a1-6)]Man(a1-6)[Man(a1-3)]Man
How it was run: as §1

[12] = target: Man(a1-3)[Man(a1-6)]Man(a1-6)[Man(a1-3)]Man(b1-4)GlcNAc(b1-4)GlcNAc
How it was run: as §1

[13] = target: Man(a1-3)[Man(a1-6)]Man(b1-4)GlcNAc(b1-4)GlcNAc
How it was run: as §1

[14] = target: Man(a1-3)[Man(a1-6)]Man(b1-4)GlcNAc(b1-4)[Fuc(a1-6)]GlcNAc
How it was run: as §1

Man(a1-6)Man = target: Man(a1-6)Man
How it was run: as §1

Man(b1-4)GlcNAc = target: Man(b1-4)GlcNAc
How it was run: as §1

MurNAc(b1-4)GlcNAc = target: MurNAc(b1-4)GlcNAc
How it was run: as §1

Neu5Ac(a2-3)Gal = target: Neu5Ac(a2-3)Gal
How it was run: as §1

[15] = target: Neu5Ac(a2-3)Gal(b1-3)GalNAc
How it was run: as §1

[16] = target: Neu5Ac(a2-3)Gal(b1-3)GalNAc(b1-3)Gal(a1-4)Gal(b1-4)Glc
How it was run: as §1

[17] = target: Neu5Ac(a2-3)Gal(b1-3)GalNAc(b1-4)Gal(b1-4)Glc
How it was run: as §1

[18] = target: Neu5Ac(a2-3)Gal(b1-3)GalNAc(b1-4)[Neu5Ac(a2-3)]Gal(b1-4)Glc
How it was run: as §1

[19] = target: Neu5Ac(a2-3)Gal(b1-3)GalNAc(b1-4)[Neu5Ac(a2-8)Neu5Ac(a2-3)]Gal(b1-4)Glc
How it was run: as §1

[20] = target: Neu5Ac(a2-3)Gal(b1-3)GalNAc6S
How it was run: as §1

[21] = target: Neu5Ac(a2-3)Gal(b1-3)GlcNAc
How it was run: as §1

[22] = target: Neu5Ac(a2-3)Gal(b1-3)GlcNAc(b1-2)Man
How it was run: as §1

[23] = target: Neu5Ac(a2-3)Gal(b1-3)GlcNAc(b1-2)Man(a1-3)[GlcNAc(b1-4)][Neu5Ac(a2-3)Gal(b1-3)GlcNAc(b1-2)Man(a1-6)]Man(b1-4)GlcNAc(b1-4)GlcNAc
How it was run: as §1

[24] = target: Neu5Ac(a2-3)Gal(b1-3)GlcNAc(b1-2)Man(a1-3)[Neu5Ac(a2-3)Gal(b1-3)GlcNAc(b1-2)Man(a1-6)]Man(b1-4)GlcNAc(b1-4)GlcNAc
How it was run: as §1

[25] = target: Neu5Ac(a2-3)Gal(b1-3)GlcNAc(b1-2)[Neu5Ac(a2-3)Gal(b1-3)GlcNAc(b1-4)]Man(a1-6)[Neu5Ac(a2-3)Gal(b1-3)GlcNAc(b1-2)Man(a1-3)]Man(b1-4)GlcNAc(b1-4)GlcNAc
How it was run: as §1

[26] = target: Neu5Ac(a2-3)Gal(b1-3)GlcNAc(b1-3)Gal(b1-3)GlcNAc
How it was run: as §1

[27] = target: Neu5Ac(a2-3)Gal(b1-3)GlcNAc(b1-3)Gal(b1-4)GlcNAc
How it was run: as §1

[28] = target: Neu5Ac(a2-3)Gal(b1-3)GlcNAc(b1-3)GalNAc
How it was run: as §1

B1: AFL5 (Aspergillus fumigatus), Q4WB00 (protein)
chain: MDNFMEMTKKLGHQPELLRLRALDATYDDALEGKLVVAPLDMSEPGKKILDSGTADGTWLRNVRSKQSVPHDYYGSDVEGELFPKDPDGITYFAHSFKDPWPQQYLGFFDLVHIRGSLAGSAPEGPAPVIQNLTTLLKPGGWVQLMEMNAFSPPPNGPAMTDFAKMASEMFTGIGVGDFANNNKSMLEDAGLKNVQEKRVIVNLGKKAKPELHDQSIHGVTGPIVPLTSVARTVKSSFTGEQLDALPARVKEELETEGGQVEMIIAFGQKA
glycan array binding signal (z-score) (Kdn(a2-3)Gal(b1-3)GlcNAc): -0.612 | glycan array binding signal (z-score) (Kdn(a2-3)Gal(b1-4)Glc): -0.078 | glycan array binding signal (z-score) (Kdn(a2-3)Gal(b1-4)GlcNAc): 0.177 | glycan array binding signal (z-score) [1]: -0.531 | glycan array binding signal (z-score) (Kdn(a2-6)Gal(b1-4)GlcNAc): 0.092 | glycan array binding signal (z-score) [2]: -0.669 | glycan array binding signal (z-score) [3]: 0.004 | glycan array binding signal (z-score) (Man(a1-2)Man(a1-3)Man): -0.59 | glycan array binding signal (z-score) [4]: -0.753 | glycan array binding signal (z-score) [5]: -0.413 | glycan array binding signal (z-score) [6]: -0.348 | glycan array binding signal (z-score) [7]: -0.906 | glycan array binding signal (z-score) [8]: -0.532 | glycan array binding signal (z-score) [9]: -0.225 | glycan array binding signal (z-score) (Man(a1-3)[Man(a1-6)]Man): 0.203 | glycan array binding signal (z-score) [10]: 0.508 | glycan array binding signal (z-score) [11]: 0.01 | glycan array binding signal (z-score) [12]: -0.14 | glycan array binding signal (z-score) [13]: -0.485 | glycan array binding signal (z-score) [14]: 0.252 | glycan array binding signal (z-score) (Man(a1-6)Man): 0 | glycan array binding signal (z-score) (Man(b1-4)GlcNAc): -0.187 | glycan array binding signal (z-score) (MurNAc(b1-4)GlcNAc): 0.25 | glycan array binding signal (z-score) (Neu5Ac(a2-3)Gal): -0.081 | glycan array binding signal (z-score) [15]: -0.027 | glycan array binding signal (z-score) [16]: -0.212 | glycan array binding signal (z-score) [17]: -0.506 | glycan array binding signal (z-score) [18]: -0.331 | glycan array binding signal (z-score) [19]: 0.202 | glycan array binding signal (z-score) [20]: -0.456 | glycan array binding signal (z-score) [21]: 0.03 | glycan array binding signal (z-score) [22]: -0.697 | glycan array binding signal (z-score) [23]: -0.491 | glycan array binding signal (z-score) [24]: -0.136 | glycan array binding signal (z-score) [25]: 0.712 | glycan array binding signal (z-score) [26]: -0.729 | glycan array binding signal (z-score) [27]: -0.364 | glycan array binding signal (z-score) [28]: -0.226
